In the supplement of paper PMC10126150:
Sequences with one replicate were seen in a single cluster, so their values are uncertain.

system: ATP; assay: switch fluorescence ratio, 500 uM ATP over buffer (Cy3 cluster intensity, sum of 5 cycles each) (fold (ratio)); higher = stronger signal-on switching upon ATP binding; sequences stand for … in TCGTCGGCAGCGTCAGATGTGTATAAGAGACAGTTTTTTTTTTTTTTTTTTTTTTTTT…TC; conditions: aptamer strand: ATP DNA aptamer (quencher-CACCTGGGGGAGTATTGCGGAGGAAGG + anchor), 100 nM annealed; ATP concentration: 500 uM; one replicate
Outline: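 Five buffer/ATP imaging cycles were run on Cy3-labelled switching-strand clusters on a modified Illumina MiSeq flow-cell, with NaOH stripping and re-annealing between cycles. In each cycle, clusters annealed to 100 nM quencher-labelled ATP aptamer were imaged in selection buffer, then after 15 min with 500 uM ATP at 22 °C. Per cluster, the fluorescence ratio is summed target-cycle over summed buffer-cycle Cy3 intensity, averaged per switch-domain sequence. Only clusters within 100-1000 RFU were kept.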
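Also: ATP exposure 15 min at 22 °C before imaging.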

| Sequence | switch fluorescence ratio |
| --- | --- |
| GACAGTTGGA | 0.939 |
| CCGGGCTCGC | 1.12 |
| GGAGTACGAT | 1.03 |
| GTCCTGGTTT | 1.06 |
| TAGGATTTCG | 0.974 |
| GACCACGTCG | 1.02 |
| GAGCACGGGG | 1.18 |
| TTAGCACGTG | 0.989 |
| TCTCGGTACT | 1.09 |
| GAAAGGTA | 1.04 |
| AATTAGGCCA | 0.979 |
| TGCGATGATC | 1.02 |
| ATTGTACTCG | 1 |
| ATGAAAGAGT | 1.01 |
| AAACCGTGTT | 1 |
| AAAAGTCCTG | 0.976 |
| TTGCCAAAT | 0.966 |
| GAGTGATGTG | 0.943 |
| TGAAGAAAAA | 0.964 |
| TATTTAAGTC | 1.04 |
| CTCTTACCTT | 1.13 |
| CTCGGTTGCA | 1 |
| GTTGGGGA | 1.03 |

| Sequence | switch fluorescence ratio |
| --- | --- |
| GAACTGGCTG | 1.03 |
| ACTAAGAAGA | 1.01 |
| TCGTACTATT | 0.964 |
| TAGGCGGCGC | 1 |
| GATCGGGAGT | 0.994 |
| GGTCAGAAT | 1 |
| TGGATGGGTC | 1.01 |
| GAATAGGTAG | 1.01 |
| CGGGATAAAC | 1.07 |
| TCGCTGTCCG | 0.999 |
| TGAGAAGCAT | 1 |
| GGTCCTGAGG | 1.03 |
| GGATCGTCTA | 0.988 |
| GTTATAATTT | 0.978 |
| CCAGACTTAA | 1.04 |
| AAGTCAGGTG | 2.32 |
| TATCTTTCGT | 1.02 |
| TTCGGTA | 0.991 |
| CGACCGCACT | 3.79 |
| GCCCCTCAA | 1.12 |
| CGTCCGTTCT | 1.05 |
| TTGGTGTAA | 1.01 |
| AGACCCTAGC | 0.993 |

| Sequence | switch fluorescence ratio |
| --- | --- |
| GCTGTAAGGT | 1.01 |
| AATTGACAC | 1.04 |
| GGTGATCTGT | 0.98 |
| CCATTCCCCC | 1.14 |
| TTGGGTACG | 0.966 |
| AGCGAACGAC | 1.66 |
| GGGATGTGAT | 0.995 |
| GTGTTGAGAG | 1 |
| TTACTAGGAA | 0.992 |
| TAGGCTTAC | 1.16 |
| GACGGGAAAT | 1 |
| GGTCGTTGTC | 0.97 |
| TAACATGGGA | 1.01 |
| TCTTGCTAGG | 1 |
| AGGGCGTGTG | 1.01 |
| AATTGTCACA | 1.02 |
| CGCAAAGCTT | 1.21 |
| TGCGAGAGCA | 0.958 |
| ATGTAATTGC | 1.04 |
| TACTTGCCCG | 1.07 |
| CCTGGGATTG | 0.999 |
| GCAATGTATT | 1.01 |
| CGTAGGCGGG | 1.01 |

| Sequence | switch fluorescence ratio |
| --- | --- |
| ACGGATGT | 1.01 |
| CAAAAGGAGA | 0.994 |
| GGGGGACACA | 0.958 |
| TAGTCCTGGG | 1.03 |
| CTTAAGTCAT | 1 |
| AAGCCCACTT | 0.973 |
| CTGCCCATAA | 1.17 |
| CTTTTCCAG | 1.21 |
| GATTTGCACT | 0.998 |
| GAGGAAATGC | 0.967 |
| GCTAGGTCAT | 1.01 |
| CAGGCGTTAA | 0.981 |
| CAGTTGTCAC | 1.04 |
| CCGATGAATC | 5.03 |
| TACTTTCCGG | 1.14 |
| GAATAGGTCC | 0.966 |
| CTCTTTATCG | 1.03 |
| TTTTCGACAA | 1.02 |
| ATTGGAATGG | 1.03 |
| AATAATTTAG | 0.974 |
| ACGAGACAGG | 1.05 |
| CGATACTTT | 0.981 |
| ATTGAGTAAG | 0.984 |

| Sequence | switch fluorescence ratio |
| --- | --- |
| ACATCCCGGT | 1.04 |
| TAGCTGTTGA | 1.06 |
| TCTGAATGAT | 0.979 |
| TACGAAACGA | 1.17 |
| CCTCTTCCAT | 1.23 |
| GGCTTGCATG | 0.98 |
| CAGTAGATAC | 1.66 |
| ACTGACGCAA | 1.36 |
| ATTGTTGCTT | 0.956 |
| CGCATGTATG | 1.07 |
| GTCACCGGGG | 1.03 |
| TGAGGTTGGA | 0.967 |
| GCCTGTGCGC | 1.07 |
| CGTCCACCTC | 1.08 |
| CGTGCCTGT | 1.07 |
| AGCTACGATC | 1.11 |
| GAATATGGTG | 1.01 |
| CCTCATGTGT | 1.25 |
| ATCGGGCCAG | 0.965 |
| GTTGGAAATA | 0.967 |
| ACCGGAACTT | 1.11 |
| AAATACAGTA | 1.08 |
| TGGCATTTCT | 1.06 |

| Sequence | switch fluorescence ratio |
| --- | --- |
| CTTCACCCAG | 1.76 |
| AAATTTGTT | 0.976 |
| GGTAGACGCT | 0.999 |
| TTGGGTCGAA | 0.981 |
| TTGCTGATTA | 0.984 |
| GCGTGCCCAC | 0.981 |
| GTTAGCATGC | 0.989 |
| CAGTGCGTTG | 0.97 |
| TAACCGGGCT | 1.01 |
| TTCCGTCCAA | 1.04 |
| CCGGTTCACC | 1.02 |
| GGGTTGATAT | 0.973 |
| CGTCGCTTGG | 1.04 |
| AGTGCTTTGA | 1.01 |
| TAGCTGATGC | 1.08 |
| CAGTATCCTC | 0.971 |
| GGGGTTGCTC | 1 |
| CAGACAGTAT | 1.03 |
| AAAACCTCTT | 1.01 |
| GATGGCGCC | 0.995 |
| GGCACTGTCA | 1.03 |
| AGGGAAAGAG | 1.32 |
| AGTCGATGC | 0.989 |

| Sequence | switch fluorescence ratio |
| --- | --- |
| CATTGACGT | 1.07 |
| CAAATAACTC | 1.03 |
| CGAGTATTGA | 0.986 |
| CGCGTTAGTT | 0.981 |
| GTTGGGTCG | 1.03 |
| TGGTATAAAT | 1.01 |
| ACGTGGCGGA | 1.03 |
| GCGTTTTCTG | 0.978 |
| TCAGACTCGT | 0.968 |
| TGGTTAACGT | 1.06 |
| TGCTGGCAGC | 1.02 |
| TTCCAGCGGA | 1.01 |
| TTATGCATAA | 1 |
| GGTATCCAAT | 0.95 |
| TGGGCTGTG | 0.972 |
| TAAAATAACG | 1.07 |
| GTTAGTAAAT | 0.997 |
| GCCCTATGA | 1.02 |
| TTGTCAGTTA | 0.997 |
| AGGTCAGCGG | 0.938 |
